Consider 14 molecules from PubChem BioAssay AID208 (DTP/NCI, 2004).

Inconclusive results are not listed. The source holds more than one record for some entries. Only these are listed. The source may hold further records. The records of an entry repeat one measurement in other runs, samples, wells, individuals or studies.

For this assay, the system named is HT29 intrarenal xenograft, nude mice, tumor weight change. Briefly: NCI In Vivo Anticancer Drug Screen. Data for tumor model HT29;CX-1 Human Adenocarcinoma (MER+) (intrarenal inoculation) in NU/NU BALB/C (nude) mice. The note with it: endpoint: mean tumor weight change, higher = larger tumour. The procedure:
The antitumor activity of compounds was measured in mice bearing transplantable tumors. Survival or tumor size were measured and the results are expressed as the measurement made in the treated group (T) divided by the measurement made in the vehicle treated control group (C). The tumor model used in this assay is HT29;CX-1 Human Adenocarcinoma (MER+) (intrarenal inoculation) in NU/NU BALB/C (nude) mice

Setting [1] is: dose: 150.0 mg/kg/injection, schedule: Q04DX004 (ip), vehicle: Klucel (hydroxypropylcellulose) (HPC).

Take `CC[C@@]1(O)C(=O)OCc2c1cc1n(c2=O)Cc2cc3ccccc3nc2-1`: the T/C by setting is: (dose: 8.0 mg/kg/injection, schedule: Q04DX004 (sc), vehicle: saline with Tween-80) -57 % of control and 70 % of control; (dose: 16.0 mg/kg/injection, schedule: Q04DX004 (sc), vehicle: saline with Tween-80) -78 % of control and 31 % of control.

`Cc1nnc2ncccn12`: where the note is “dose: 50.0 mg/kg/injection, schedule: Q04DX004 (sc), vehicle: saline”, the T/C was 72 % of control and 104 % of control.

As to `CCC1OCC(C(Cl)CCl)O1` (configuration not stated), the T/C is, setting by setting: (dose: 177.0 mg/kg/injection, schedule: Q01DX014 (sc), vehicle: Klucel (hydroxypropylcellulose) (HPC)) 79 % of control, 107 % of control, 121 % of control; (dose: 267.0 mg/kg/injection, schedule: Q01DX014 (sc), vehicle: Klucel (hydroxypropylcellulose) (HPC)) 51 % of control, 68 % of control, 83 % of control; (dose: 400.0 mg/kg/injection, schedule: Q01DX014 (sc), vehicle: Klucel (hydroxypropylcellulose) (HPC)) 18 % of control, 35 % of control, 67 % of control; (dose: 600.0 mg/kg/injection, schedule: Q01DX014 (sc), vehicle: Klucel (hydroxypropylcellulose) (HPC)) -8 % of control and 72 % of control.

With `O=c1[nH]c(=O)n([C@H]2CCCO2)cc1F`, the T/C (dose: 355.9 mg/kg/injection, schedule: Q04DX004 (ip), vehicle: Klucel (hydroxypropylcellulose) (HPC)) is 39 % of control and 66 % of control.

In the case of `CO[C@H](/C(C)=C/C=C/C(C)=C/c1coc(C)n1)[C@H](C)[C@H]1C[C@@H](O)[C@@]2(C)O[C@H]2/C=C/[C@@H](C)[C@@H]2C[C@@H](CC(=O)O2)C[C@H]2O[C@@H]2C(=O)O1`, the T/C is 36 % of control and 118 % of control (dose: 0.25 mg/kg/injection, schedule: Q04DX004 (sc), vehicle: Klucel (hydroxypropylcellulose) (HPC)); 5 % of control and 116 % of control (dose: 0.5 mg/kg/injection, schedule: Q04DX004 (sc), vehicle: Klucel (hydroxypropylcellulose) (HPC)).

As to `CC1(C)OCC2OC=CC(=O)C2O1` (configuration not stated), the T/C (dose: 300.0 mg/kg/injection, schedule: Q04DX004 (sc), vehicle: saline with Tween-80) is 77 % of control and 119 % of control.

With `CN(C)/N=N/c1nc[nH]c1C(N)=O`, the T/C is 96 % of control and 167 % of control (dose: 100.0 mg/kg/injection, schedule: Q04DX004 (ip), vehicle: Klucel (hydroxypropylcellulose) (HPC)); 64 % of control and 104 % of control under setting [1]; 77 % of control and 109 % of control (dose: 225.0 mg/kg/injection, schedule: Q04DX004 (ip), vehicle: Klucel (hydroxypropylcellulose) (HPC)).

Turning to `O=P(O)(NCCCl)NCCCl`, where the note is “dose: 18.75 mg/kg/injection, schedule: Q04DX004 (sc), vehicle: saline”, the T/C was 52 % of control and 108 % of control.

`C[n+]1c(-c2cccc3ccccc23)c2cc(N)ccc2c2ccccc21`: the T/C (dose: 24.0 mg/kg/injection, schedule: Q04DX004 (sc), vehicle: saline) is 71 % of control and 151 % of control.

`COc1cccc2c1C(=O)c1c(O)c3c(c(O)c1C2=O)CC(O)(C(=O)CO)CC3OC1CC(N)C(O)C(C)O1` (configuration not stated): the T/C (dose: 150.0 mg/kg/injection, schedule: Q04DX004 (sc), vehicle: water) is 43 % of control and 73 % of control.

Consider `CC(=O)OC(C)C1C2=C(C(=O)CC1(C)O)C(=O)c1c(ccc(-c3ccc4c(c3O)C(=O)C3=C(C4=O)C(C(C)OC(C)=O)C(C)(O)CC3=O)c1O)C2=O` (configuration not stated), for which the T/C (dose: 15.0 mg/kg/injection, schedule: Q04DX004 (ip), vehicle: saline with Tween-80) is 82 % of control and 113 % of control.

`Oc1c(Cl)cc(Cl)cc1C=NCCSc1ccc(Cl)cc1`: the T/C is 28 % of control and 159 % of control under setting [1]; 71 % of control and 163 % of control (dose: 300.0 mg/kg/injection, schedule: Q04DX004 (ip), vehicle: Klucel (hydroxypropylcellulose) (HPC)).

Regarding `CCC1=C[C@H]2CN(CCc3c([nH]c4ccccc34)[C@@](C(=O)OC)(c3cc4c(cc3OC)N(C)[C@H]3[C@@](O)(C(=O)NC)[C@H](OC(C)=O)[C@]5(CC)C=CCN6CC[C@]43[C@@H]65)C2)C1`, for the setting “dose: 1.0 mg/kg/injection, schedule: Q04DX004 (sc), vehicle: water”, the T/C was 12 % of control and 48 % of control.

`O=P1(N(CCCl)CCCl)NCCCO1` (configuration not stated): the T/C reads like this: (dose: 25.0 mg/kg/injection, schedule: Q04DX004 (ip), vehicle: saline) 61 % of control and 163 % of control; (dose: 40.0 mg/kg/injection, schedule: Q04DX004 (ip), vehicle: saline) 61 % of control, 71 % of control, 88 % of control; (dose: 50.0 mg/kg/injection, schedule: Q04DX004 (ip), vehicle: saline) 33 % of control and 87 % of control; (dose: 90.0 mg/kg/injection, schedule: Q04DX004 (ip), vehicle: saline) 43 % of control, 63 % of control, 86 % of control; (dose: 100.0 mg/kg/injection, schedule: Q04DX004 (ip), vehicle: saline) 6 % of control and 108 % of control; (dose: 200.0 mg/kg/injection, schedule: Q04DX004 (ip), vehicle: saline) -93 % of control and 37 % of control.
